The whole screen tested about 310,000 compounds, of which about 14,000 (4.5%) showed an effect of 50% or more. Effects have a minus sign here. The list shows a part of the results.
biological target: human ether-à-go-go-related gene (hERG) potassium channel (human, UniProt Q12809); experiment: primary screen, population patch clamp on CHO cells stably expressing hERG
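Further: peak tail current of the secondary pulse compared with the same well before compound.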

Sequence of human ether-à-go-go-related gene (hERG) potassium channel (Q12809 whole entry, looked up): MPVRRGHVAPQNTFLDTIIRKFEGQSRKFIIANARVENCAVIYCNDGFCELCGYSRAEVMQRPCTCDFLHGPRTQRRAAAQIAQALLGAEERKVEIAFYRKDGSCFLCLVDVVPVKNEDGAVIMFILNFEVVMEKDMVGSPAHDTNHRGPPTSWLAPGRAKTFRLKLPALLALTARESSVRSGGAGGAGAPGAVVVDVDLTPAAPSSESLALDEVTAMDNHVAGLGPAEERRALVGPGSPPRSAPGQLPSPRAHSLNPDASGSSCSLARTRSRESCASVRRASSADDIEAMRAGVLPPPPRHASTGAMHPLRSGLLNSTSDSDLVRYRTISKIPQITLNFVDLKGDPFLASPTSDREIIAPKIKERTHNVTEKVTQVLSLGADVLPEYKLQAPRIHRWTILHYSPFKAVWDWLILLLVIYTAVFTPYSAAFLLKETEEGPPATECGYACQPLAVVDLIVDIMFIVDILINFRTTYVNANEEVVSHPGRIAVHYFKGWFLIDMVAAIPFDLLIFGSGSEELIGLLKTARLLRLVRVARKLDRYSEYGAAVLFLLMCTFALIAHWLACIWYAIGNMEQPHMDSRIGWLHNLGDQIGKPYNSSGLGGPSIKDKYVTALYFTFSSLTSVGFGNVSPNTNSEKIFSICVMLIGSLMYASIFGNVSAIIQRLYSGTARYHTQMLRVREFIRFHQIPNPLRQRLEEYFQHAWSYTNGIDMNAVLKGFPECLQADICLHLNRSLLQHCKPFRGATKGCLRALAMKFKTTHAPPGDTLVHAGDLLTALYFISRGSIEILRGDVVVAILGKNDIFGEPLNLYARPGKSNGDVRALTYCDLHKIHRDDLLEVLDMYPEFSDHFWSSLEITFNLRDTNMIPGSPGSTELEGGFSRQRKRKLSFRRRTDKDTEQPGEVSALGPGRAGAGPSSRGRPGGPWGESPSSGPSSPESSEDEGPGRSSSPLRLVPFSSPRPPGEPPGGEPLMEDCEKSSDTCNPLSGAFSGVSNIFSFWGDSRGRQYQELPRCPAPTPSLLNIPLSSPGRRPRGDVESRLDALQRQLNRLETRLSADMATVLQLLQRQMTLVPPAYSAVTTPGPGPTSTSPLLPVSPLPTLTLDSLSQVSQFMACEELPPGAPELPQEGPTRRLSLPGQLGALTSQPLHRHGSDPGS

Compound | hERG current change (%, negative = inhibition) at 10uM [%]
CCOc1cc2[nH]c(=S)n(CCC(=O)NCc3ccco3)c(=O)c2cc1OCC | 23.6
COc1ccc(-c2ccc(CCC(=O)O)o2)cc1 | -0.707
CCCCc1nnc(NC(=O)c2cccc(S(=O)(=O)N3CCN(C)CC3)c2)s1 | 14.7
O=C(CCSc1ccccc1)Nc1ccccc1Br | -13.2
CC(C)(C)N1CC23CCC(C[C@@H]2C1=O)O3 (some centres unmarked) | 7.02
COC(=O)C1=NN[C@H](C(=O)OC(C)(C)C)[C@H]1c1ccccc1 | -6.12
OCC[C@@H]1C[C@H](O)[C@@H](O)[C@@]2(OCCCc3ccccc32)O1 | 15
CC1(C)CC(N2CCCC2)=CC(=[N+]2CCCCC2)C1.[I-] | 3.58
O=C(Nc1nnc(SCC(=O)N2CCCC2)s1)C1CC(=O)N(c2ccc(F)cc2)C1 (centres unmarked) | 24
C=CCC(NC(C)c1ccccc1)c1ccco1 (centres unmarked) | -6.84
CCOCCCNC(=S)N1C2CCC1CC(NC(=O)NC13CC4CC(CC(C4)C1)C3)C2 (centres unmarked) | -8.16
CCCNCc1cc(OC)c(OCc2ccccc2)cc1Br.Cl | -28.2
Cc1ccc2nc(N3CCN(C)CC3)[nH]c2c1.Cl | 8.48
Cc1ccccc1NC(=O)/C=C1\SC(=O)NC1=O | 17.5
Cc1nc(N2CCOCC2)c2cc(-c3ccccc3)sc2n1 | -3.14
CCCCN(CCCC)CCNC(=O)c1cn(CC)c2ccc(S(=O)(=O)N3CCc4ccccc4C3)cc2c1=O | -78.8
CCOc1cccc2sc(Cl)nc12 | 13.7
COCCN(C(=O)c1oc2ccccc2c1COC)c1c(N)n(CC(C)C)c(=O)[nH]c1=O | 1.71
CC(C)CN(C(=O)c1ccc(S(=O)(=O)N2CCCC2)cc1)C1CCS(=O)(=O)C1 (centres unmarked) | -3.52
CCOCC(=O)Nc1ccc(S(=O)(=O)N2CCOCC2)cc1 | 13.5
CSc1cccc(NC(=O)c2ccc(NC3=NC4CS(=O)(=O)CC4S3)cc2)c1 (centres unmarked) | 13.5
CN1CCN(C(=O)C2=C[C@H](C3CC3)C[C@H](OCc3ccc(CO)cc3)O2)CC1 | -1.42

Compound | hERG current change (%, negative = inhibition) at 10uM [%]
CCOc1ccccc1NC(=O)CSc1n[nH]c(N)n1 | 13.9
Cc1ccc(-n2c(SCC(=O)Nc3cc(C)on3)nc3c(c2=O)SC(C)C3)cc1 (centres unmarked) | -24.8
CCCCC(CC)C(=O)Nc1cc(C(=O)NCc2ccc(C)cc2)ccc1N1CCC2(CC1)CC(c1cccc(Br)c1)=NO2 (centres unmarked) | 17.6
O=C(COc1ccc(Cl)cc1)NCc1n[nH]c(=O)c2ccccc12 | -13
CC(C)(C)n1nc2c(c1NC(=O)c1ccc([N+](=O)[O-])cc1)CS(=O)(=O)C2 | -34.2
O=[N+]([O-])c1ccc(Sc2ncc3ccccn23)nc1 | -51.6
Cn1c(SCC(=O)N2CCc3ccccc3C2)nnc1-c1ccncc1 | -28.5
Cc1ccc(C(=O)N/C(=C/c2cccnc2)C(=O)O)cc1 | 8.41
O=C(CNC(=O)c1ccc(-c2ccccc2)cc1)Nc1ccc(S(=O)(=O)Nc2ncccn2)cc1 | 4.04
CCCCC(=O)NN(C)c1nc(-c2ccccc2)nnc1C(F)(F)F | 9.7
CSc1ccccc1NC(=O)CN(C1CCCCC1)S(C)(=O)=O | -1.49
COc1ccc(C(=O)ON=C2CCN(c3ccc([N+](=O)[O-])cc3)CC2)cc1 | -68.5
COc1cccc(CC(=O)OC(C)C(=O)Nc2ncc(Cl)cc2Cl)c1 (centres unmarked) | -5
CC(C)[C@H](NS(=O)(=O)c1ccccc1)C(=O)OCC(=O)Nc1ccc2c(c1)OCO2 | -22.1
O=C(Cc1cccs1)NCc1ccccc1F | -3
Cn1c(C(=O)N2COCC2(C)C)cc2c(=O)n3ccccc3nc21 | -1.15
N#Cc1c(-c2ccccc2)nc(N2CCN(Cc3ccccc3)CC2)[nH]c1=O | 13.6
CCn1cc([N+](=O)[O-])c(C(=O)N2N=C(c3ccc4ccccc4c3)CC2c2ccccc2O)n1 (centres unmarked) | 3.19
Cc1nnc(SCC(=O)NCc2cccs2)n1-c1ccccc1 | 1.68
O=S(=O)(c1ccc(F)cc1)N1CN2CCN(C2)C1 | 7.75
Nc1ccccc1-c1ccccc1N | 15.2
COc1ccc(NC(=O)CCN2C(=O)c3cccc([N+](=O)[O-])c3C2=O)cc1 | -5.08

Reference: publication PMC4336329 (PLoS ONE, 2015)
